Laboratory results published in PubChem BioAssay AID2676 (National Center for Advancing Translational Sciences (NCATS), 2010).
The campaign covered roughly 370,000 compounds. About 1,100 (0.3%) were called active. This list was built around the results that the source calls inconclusive (neither active nor inactive); the mix of calls is not that of the screen. The call rests on the fitted dose curve; in most records, active means well fitted activation curve with a large enough effect; inconclusive means small, poorly fitted or top-dose-only effect; inactive means flat fitted curve, though single readings scatter. Potencies beside an inconclusive call are fits to weak or partial responses and may not hold up.

Each compound was assayed against Relaxin receptor 1 (Homo sapiens) (UniProt Q9HBX9) (assay: qHTS Assay for Agonists of the Relaxin Receptor RXFP1). Conditions: HEK293T-RXFP1 cAMP TR-FRET, 30 min; series mostly up to 57.5 µM; activation: at the top concentration.
UniProt Q9HBX9, sequence (Q9HBX9 whole entry, looked up): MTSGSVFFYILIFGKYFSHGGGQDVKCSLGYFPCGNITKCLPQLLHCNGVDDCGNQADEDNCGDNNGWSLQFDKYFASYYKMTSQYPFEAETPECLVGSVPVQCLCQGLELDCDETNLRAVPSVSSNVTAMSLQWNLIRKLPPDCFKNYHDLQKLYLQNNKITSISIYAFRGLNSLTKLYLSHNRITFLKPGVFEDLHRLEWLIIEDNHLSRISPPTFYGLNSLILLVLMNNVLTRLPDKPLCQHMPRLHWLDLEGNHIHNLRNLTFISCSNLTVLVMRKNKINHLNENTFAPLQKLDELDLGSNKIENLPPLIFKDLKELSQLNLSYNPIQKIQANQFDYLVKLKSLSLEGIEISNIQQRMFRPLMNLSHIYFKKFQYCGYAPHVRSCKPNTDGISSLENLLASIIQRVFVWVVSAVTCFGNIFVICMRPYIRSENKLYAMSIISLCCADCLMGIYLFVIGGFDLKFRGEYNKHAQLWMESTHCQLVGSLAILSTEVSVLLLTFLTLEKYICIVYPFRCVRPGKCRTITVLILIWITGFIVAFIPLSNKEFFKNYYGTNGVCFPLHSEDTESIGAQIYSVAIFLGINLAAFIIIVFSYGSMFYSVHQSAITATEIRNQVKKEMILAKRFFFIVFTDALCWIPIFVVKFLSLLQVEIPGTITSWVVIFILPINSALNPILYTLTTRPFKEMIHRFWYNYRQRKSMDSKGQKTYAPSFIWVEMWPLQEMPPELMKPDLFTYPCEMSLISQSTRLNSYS
Method in brief: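 Agonist response is measured as cAMP accumulation in an RXFP1-transfected HEK293T line under PDE4 inhibition. Values are scaled between buffer-only and 29 nM porcine relaxin, and EC50s come from standard Hill equation fits.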
Further: nearly all actives have a fitted effect of over 60% in size.
On the % scale 0 is the no-effect control and ±100 the full control effect; potency means the concentration at half of the fitted maximal effect; tags describe the fitted curve by direction and shape.

activation, inactive:
Cc1nc2ccc(NC(=O)c3ccccc3)cc2s1 13.7%, Cc1ccc(-n2nc(C(=O)N3CCCCC3C)c(=O)n(C)c2=O)cc1 (configuration not stated) 0.922%, CCOc1ccc(C(=O)Nc2ccc3nc4c(c(Nc5ccccc5OC)c3c2)CCCC4)cc1 -0.31%, CNC(=S)N(Cc1ccco1)Cc1cc2cc(OC)c(OC)cc2[nH]c1=O -0.0715%, CCOC(=O)CC(NS(=O)(=O)c1cc(-c2cc(C)no2)ccc1C)c1ccc(C)cc1 (configuration not stated) -0.174%, Cc1ccc(SC[C@H](c2ccccc2)N2CCN(CCc3ccccc3)CCC2=O)cc1 0.206%, c1ccc(-c2c(-c3ccccc3)n(Cc3ccco3)c3ncnc(NCCCn4ccnc4)c23)cc1 4.7%, COc1ccccc1NS(=O)(=O)c1cc(NC(=O)c2ccc(Cl)nc2)ccc1Cl -0.0891%, Cc1ccc(-n2nnnc2SC(C)C(N)=O)c(C)c1 (configuration not stated) -1.33%, O=C(CSc1ccc(Cl)cc1)N1CCC(c2nc3ccccc3s2)CC1 -2.85%, COc1ccc(NC(=O)CN2CCc3ccccc3C2)c(OC)c1 1.98%, CCN(CC)CCCNC(=S)N1CCN(c2nc(-c3ccc(F)cc3)cs2)CC1 1.14%

Potency, inconclusive:
O=C(CSc1ncnc2c1oc1ccccc12)NC1CCCCC1 39.8 µM [activator, single point], Cc1ccc(O)c(C2=Nc3ccccc3N=C(c3ccco3)C2)c1 39.8 µM [activator, single point], CCCOc1ccc(/C(O)=C2/C(=O)C(=O)N(CCCn3ccnc3)C2c2cccnc2)cc1 (configuration not stated) 14.1 µM [activator, partial curve], Cc1ccc2c(c1)c(=O)c1ccccc1n2CCCC(=O)Nc1ccc(F)cc1F 31.6 µM [activator, partial curve], Cc1c(C(=O)NCCN(C)C)oc2c1-c1nn(Cc3ccccc3Cl)cc1CC2 22.4 µM [activator, partial curve], Cc1ccc2[nH]c(=O)c3cc(C(=O)N(C)c4ccccc4C)sc3c2c1 39.8 µM [activator, single point], COc1ccc(/C(O)=C2/C(=O)C(=O)N(Cc3ccco3)C2c2cccs2)cc1 (configuration not stated) 20 µM [activator, partial curve], COc1ccc(NC(=O)c2c(NC(=O)COc3ccc(Cl)cc3)sc3c2CCCCC3)cc1 39.8 µM [activator, single point], Cc1cccc(-c2nc3cc(NC(=O)Cc4ccc(Cl)cc4)ccc3o2)c1 39.8 µM [activator, partial curve], COc1ccccc1-c1n[nH]c(=S)n1-c1ccccc1 17.8 µM [activator, partial curve], O=C(CSc1nnc(-c2ccc(Cl)cc2)c(-c2ccc(Cl)cc2)n1)NC1CCCC1 39.8 µM [activator, single point], Cc1c(Cl)cccc1NC(=O)Cn1cc(C(F)(F)F)cc(Cl)c1=O 28.2 µM [activator, single point], CCOc1ccc(/C(O)=C2/C(=O)C(=O)N(CCOCCO)C2c2ccc(F)cc2)cc1 (configuration not stated) 25.1 µM [activator, partial curve], CC1CCN(S(=O)(=O)c2ccc3[nH]cc(C(=O)NCc4ccc(F)cc4)c(=O)c3c2)CC1 31.6 µM [activator, single point], N#Cc1c2c(c(-n3cnc4ccccc43)n3c1nc1ccccc13)CCC2 39.8 µM [activator, single point], COc1ccc(NC(=O)CCn2c(=S)[nH]c3ccccc3c2=O)cc1 35.5 µM [activator, single point], Cc1ccc(-n2c(N)c(C#N)c(-c3ccc(Cl)cc3)c(C#N)c2=O)cc1 31.6 µM [activator, single point], O=C(NCc1nnc2c(C(F)(F)F)cc(Cl)cn12)c1ccc(Br)o1 17.8 µM [activator, partial curve], COC(=O)c1ccc(C2/C(=C(\O)c3ccc4c(c3)OCCO4)C(=O)C(=O)N2CCCN2CCOCC2)cc1 (configuration not stated) 20 µM [activator, partial curve], CCOc1ccc(-c2cc(NC(=O)Nc3ccccc3C(F)(F)F)c(C(=O)OC)s2)cc1 39.8 µM [activator, single point], Cc1cccn2c(=O)c(C=C(C#N)C#N)c(N3CCN(C)CC3)nc12 28.2 µM [activator, partial curve], CCc1ccc(NC(=O)c2sc3nc(C)cc(C)c3c2NC(=O)c2ccccc2OC)cc1 31.6 µM [activator, partial curve], COc1cc(OC)c(NC(=O)CSc2cc(=O)n(C)c3ccc(Cl)cc23)cc1Cl 35.5 µM [activator, single point], Cc1ccccc1Cn1c2ccccc2c2cnn(CC(=O)NCCc3ccc(Cl)cc3)c(=O)c21 39.8 µM [activator, single point], CSc1nc(Sc2ccccc2Cl)c2ccccc2n1 25.1 µM [activator, partial curve], COc1ccc(NC(=O)c2ccc3c(c2)sc2nc(-c4ccc(OC)cc4)cn23)cc1 15.8 µM [activator, partial curve], CCN(CC)c1cc2c(cc1F)c(=O)c(S(=O)(=O)c1cccc(C)c1)cn2C 39.8 µM [activator, single point], COCCn1c(SCC(=O)Nc2ccc(OC)cc2)nc2c(oc3ccccc32)c1=O 39.8 µM [activator, single point], Cc1cccc(NC(=O)CSc2nc3ccccc3nc2N2CCOCC2)c1C 39.8 µM [activator, single point], CCOc1ccc(NC(=O)Cn2ccn3nc(-c4ccc(OC)c(OC)c4)cc3c2=O)cc1 39.8 µM [activator, single point]
